# Inconclusive results, whose numbers are uncertain, are shown with a selection of clear calls. For some assays here: Where the call is inconclusive, the potency comes from a doubtful curve fit. Calls of active or inactive are those of the source. Calls come from the whole dose curve; as a rule, active = well fitted curve in the direction sought with a large enough effect; inconclusive = small, poorly fitted or top-dose-only effect, or another doubt; inactive = no such curve, though single readings can be large; an effect the other way counts as inactive or inconclusive.
# Key:
# [1] = target: Cytochrome P450 2C9 (Homo sapiens) (UniProt P11712); assay: qHTS Assay for Inhibitors and Substrates of Cytochrome P450 2C9 (AID 883); conditions: recombinant CYP2C9, luciferin-H luminescence, 60 min; series mostly up to 57.1 µM; note: % is set by controls: 0 for no effect and ±100 for the full control effect; nearly all actives have a fitted effect of over 60% in size
# In short: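 CYP2C9 deoxyluciferin hydroxylation, 37C, 60 min with NADPH regeneration; 10nM enzyme, 100uM Luciferin-H (KM). Glo detection reagent stopped reaction; luminescence normalized to sulphaphenazole (57uM) full inhibition.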
# [2] = target: Muscarinic acetylcholine receptor M1 (Rattus norvegicus) (UniProt P08482); assay: qHTS Assay for Antagonists of Acetylcholine Muscarinic M1 Receptor: Measurement of IP-One Response (AID 944); conditions: CHO-M1 cells, IP-One HTRF, antagonist mode; series mostly up to 46.1 µM; note: potency is the fitted concentration of half-maximal effect; nearly all actives have a fitted effect of over 75% in size
# [3] = MultiTox-Fluor Cytotoxicity Assay - LYMP1-002 - Dead Cells (AID 960); conditions: LYMP1-002 lymphoblastoid cells, dead-cell protease fluorescence; cytotoxicity (dead cells): at 46.1 µM (top of the series);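 note: cells exposed to compound for 16 h at 37 °C; 0% = DMSO and 100% = tetraoctylammonium bromide; nearly all actives have a fitted effect of over 60% in size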
# In short: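 Acute cytotoxicity in a human lymphoblastoid line is scored as rising dead-cell protease signal after 16 hr exposure at 37 C, measured fluorometrically (485/520).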
# [4] = Cell Viability - LYMP2-009 (AID 968); conditions: LYMP2-009 lymphoblastoid cell viability; series mostly up to 92.2 µM;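 note: cells exposed to compound for 24 h at 37 °C; 0% = DMSO alone and the full-kill end = tetraoctylammonium bromide at 92 µM; nearly all actives have a fitted effect of over 55% in size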
# [5] = Cell Viability - LYMP2-010 (AID 981); conditions: LYMP2-010 lymphoblastoid cell viability, qHTS; series mostly up to 92.2 µM;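 note: cells exposed to compound for 24 hours at 37 °C; % is set by controls: 0 for no effect and ±100 for the full control effect; nearly all actives have a fitted effect of over 55% in size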
# In short: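 Acute toxicity is scored as a concentration-dependent loss of cellular ATP in human lymphoblastoid cells after 24 hr compound exposure in complete medium. Tetraoctylammonium bromide is the positive control.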
# [6] = Cell Viability - LYMP1-002 - Assay at 40 hr (AID 994); conditions: LYMP1-002 lymphoblastoid cell viability; series mostly up to 92.2 µM;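 note: 0% = DMSO only and full inhibition = 92 µM tetraoctylammonium bromide; nearly all actives have a fitted effect of over 60% in size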
# In short: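 Viability in the human lymphoblastoid line was measured as intracellular ATP via CellTiter-Glo after 40 hr compound exposure. Tetraoctylammonium bromide served as positive control.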
# [7] = Cytometric Cell-Based qHTS for Inhibitors of the mTORC1 Signaling Pathway in MEF (Tsc2-/-, p53-/-) Cells (AID 2660); conditions: mTORC1 pathway cytometry; series mostly up to 38.3 µM; note: potency is the fitted concentration of half-maximal effect
# In short: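 Cells are plated, treated with compound for 24 hrs at 37 degree Celsius, then fixed, blocked and immunostained for phospho-rpS6 Ser235/236. Propidium iodide counterstain follows. Per-well % positive cells is derived from the PI-normalized phospho-S6 signal.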
# [8] = High Content Imaging Cell-Based qHTS for Inhibitors of the mTORC1 Signaling Pathway in MEF Cells (AID 2667); conditions: series mostly up to 38.3 µM; note: potency is the fitted concentration of half-maximal effect
# In short: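 MEF (Tsc2-/-, p53-/-, WT Tsc2 re-expressed); cpd 24 h, 37 °C; PFA fix; Alexa-488 anti-p-rpS6 Ser235/236, PI, Hoechst; IN Cell imaging; Hoechst/Alexa-488 intensity ratio; % active cells, thresholds set from rapamycin and DMSO wells.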
# [9] = target: Thioredoxin reductase 1, cytoplasmic (Rattus norvegicus) (UniProt O89049); assay: qHTS Assay for Inhibitors of Mammalian Selenoprotein Thioredoxin Reductase 1 (TrxR1) (AID 488773); conditions: purified TrxR1 enzyme activity; Potency: inhibition; series mostly up to 57.1 µM; note: potency is the fitted concentration of half-maximal effect; nearly all actives have a fitted effect of over 40% in size
# In short: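 Steps: enzyme (90 nM) plus NADPH (400 uM final), 5 min at ~22 deg C; compound added, 15 min; selenite (400 uM final) added; fluorescence followed for 8 min. Concentration-response curves derived from the normalized delta values.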
# [10] = target: Transient receptor potential cation channel subfamily V member 1 (Homo sapiens) (UniProt Q8NER1); assay: HTS Assay for Compounds that Act as Enhancers of the Vanilloid Receptor 1 (AID 488979); conditions: TRPV1-expressing cells, enhancer of channel activity, stimulated with capsaicin at EC20; series mostly up to 41.7 µM; note: potency is the fitted concentration of half-maximal effect
# In short: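 TRPV1-expressing cells loaded with Fluo-8 calcium dye; compounds added and calcium influx read kinetically for 3 min (agonist phase), then capsaicin at EC20 added and read 2 min more for enhancement. Fluorescence ex 480/em 520 nm.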
# [11] = target: phosphoglycerate mutase (Leishmania major) (UniProt Q4Q090); assay: qHTS Validation Assay to Find Inhibitors of Phosphoglycerate Mutase (AID 504548); conditions: biochemical enzyme activity, inhibition qHTS; note: potency is the fitted concentration of half-maximal effect
# In short: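 Luminescent end-point read-out via Kinase-GloPlus after a 10-minute development. Reaction: 1.25nM Leishmania major PGAM with substrate and compound, 45 minutes at room temperature in TEA buffer (pH 7.6) with MgCl2 and Tween-20.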
# [12] = target: Vitamin D3 receptor (Homo sapiens) (UniProt P11473); assay: qHTS for Inhibitors of the vitamin D receptor (VDR): Hit Validation using a Fluorescein Assay (AID 602200); conditions: VDR-coactivator binding, fluorescein fluorescence polarization; note: potency is the fitted concentration of half-maximal effect
# In short: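 Fluorescence polarization (Ex 495 nm/Em 520 nm) read after 2 h at room temperature, reporting disruption of binding between 1.5 uM VDR-LBD, liganded by 5 uM LG19078, and 5 nM fluorescein-labelled SRC2-3 coactivator peptide (final concentrations).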
# [13] = qHTS for Inhibitors of the vitamin D receptor (VDR): Hit Validation using a Texas Red Assay (AID 602201); conditions: VDR coregulator binding, Texas Red fluorescence polarization; agonist-bound VDR ligand-binding domain; note: potency is the fitted concentration of half-maximal effect
# In short: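 Fluorescence polarization (Ex 595/Em 615 nm) of Texas Red (7 nM) with 1.5 uM VDR-LBD and LG19078 (final concentrations). Compounds were incubated for 2 hours at room temperature.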
# [14] = target: Vitamin D3 receptor (Homo sapiens) (UniProt P11473); assay: qHTS for Inhibitors of the vitamin D receptor (VDR): Hit Validation using a Beta-Lactamase Assay (AID 602202); conditions: VDR beta-lactamase reporter cells, FRET ratio, cells co-treated with VDR agonist LG190178; series mostly up to 46.1 µM; note: potency is the fitted concentration of half-maximal effect
# In short: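 Stably transfected HEK293 cells express a VDR–GAL4 DNA-binding-domain fusion driving a UAS beta-lactamase reporter, stimulated by agonist LG190178. Compounds were added 4 h after plating and incubated 18 h. A FRET beta-lactam substrate was then added for 2 h and cleaved substrate emission read at 447 nm.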
# [15] = qHTS for Inhibitors of the vitamin D receptor (VDR): Hit Validation using a Cytotoxicity Assay (AID 602204); conditions: cytotoxicity counter-screen, cell viability;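 note: cells co-treated with VDR agonist LG190178 at 300 nM; potency is the fitted concentration of half-maximal effect; nearly all actives have a fitted effect of over 75% in size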
# In short: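 Compounds stayed on cells (20,000/well, plated 4 hours earlier) for 18 hours. Viability then taken as ATP content by CellTiter-Glo, read as luminescence after 30 minutes. Controls: high-concentration cycloheximide (positive), DMSO (negative).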
# [16] = target: Glutaminase kidney isoform, mitochondrial (Homo sapiens) (UniProt O94925); assay: qHTS for Inhibitors of Glutaminase (GLS): LOPAC Validation (AID 624146); conditions: glutaminase enzyme activity inhibition; series mostly up to 46.1 µM; note: potency is the fitted concentration of half-maximal effect; nearly all actives have a fitted effect of over 60% in size
# In short: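 Human kidney-isoform GLS in 45 mM KH2PO4 pH 8.2, 0.02% Tween-20, with compound, started with 1mM L-Glutamine (added stock). Glutamate oxidase/HRP/Amplex red coupled fluorescence read at start and after 30 min at RT.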
# [17] = target: ATP-dependent 6-phosphofructokinase (Trypanosoma brucei brucei) (UniProt O15648); assay: qHTS Assay to Find Inhibitors of T. brucei phosphofructokinase: hit validation (AID 492961); note: potency is the fitted concentration of half-maximal effect; conditions: T. brucei PFK, ADP-Glo luminescence; series mostly up to 51.4 µM
# In short: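 Reaction: 0.1 M triethanolamine pH 8.0, 5 mM MgCl2, F6P 0.5 mM, ATP 0.1 mM, PFK 1.25 nM, 45 min RT. Read-out: ADP-Glo luminescence. Analysis: concentration-response fits, classed by r2 and efficacy.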
# [18] = P-glycoprotein substrates identified in KB-3-1 adenocarcinoma cell line, qHTS therapeutic library screen (AID 1346986); conditions: KB-3-1 parental cells viability, CellTiter-Glo, 72 h; series mostly up to 44.5 µM; note: nearly all actives have a fitted effect of over 60% in size
# In short: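 KB-3-1 parental cells and P-gp-overexpressing KB-8-5-11 (colchicine omitted during assay) plated at 500 cells/well, dosed in dose-response, incubated 72 h at 37 degree C. CellTiter-Glo luminescence read; KB-8-5-11 also tested with tariquidar.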
# [19] = qHTS of pediatric cancer cell lines to identify multiple opportunities for drug repurposing: Confirmatory screen for NB1643 cells (AID 1347109); conditions: NB1643 neuroblastoma cell viability; series mostly up to 45.9 µM; note: potency is the fitted concentration of half-maximal effect; nearly all actives have a fitted effect of over 45% in size
# In short: (§1)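 Cells (500-1,000/well) in growth media were settled 5 h at 37 degrees C, then given compounds for 48 h. Viability was read as CellTiter-Glo luminescence. Primary runs used MIPE at 11 points (0.78 nM-46 µM) and NPC at 8 points (0.59 nM-46 µM); follow-ups used 11 points.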
# [20] = qHTS of pediatric cancer cell lines to identify multiple opportunities for drug repurposing: Confirmatory screen for BT-12 cells (AID 1347112); conditions: BT-12 rhabdoid tumor cells, viability; series mostly up to 45.9 µM; note: potency is the fitted concentration of half-maximal effect; nearly all actives have a fitted effect of over 55% in size
# In short: as §1
# Tags give direction and shape of the fitted curve.
# Chain of UniProt P11473 (P11473 whole entry, looked up, the tested form may be a part): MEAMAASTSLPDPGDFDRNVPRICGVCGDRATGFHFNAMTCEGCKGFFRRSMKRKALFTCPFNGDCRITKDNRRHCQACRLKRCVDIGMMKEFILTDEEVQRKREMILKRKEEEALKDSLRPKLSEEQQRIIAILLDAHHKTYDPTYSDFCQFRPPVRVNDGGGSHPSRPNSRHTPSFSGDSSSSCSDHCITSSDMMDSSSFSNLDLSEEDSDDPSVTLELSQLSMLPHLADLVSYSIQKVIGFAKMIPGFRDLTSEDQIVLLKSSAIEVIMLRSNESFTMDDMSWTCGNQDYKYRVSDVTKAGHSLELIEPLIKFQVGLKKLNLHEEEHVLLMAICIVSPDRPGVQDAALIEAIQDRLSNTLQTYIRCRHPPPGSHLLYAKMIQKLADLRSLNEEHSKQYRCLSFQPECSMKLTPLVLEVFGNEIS
# Chain of UniProt O15648 (O15648 whole entry, looked up): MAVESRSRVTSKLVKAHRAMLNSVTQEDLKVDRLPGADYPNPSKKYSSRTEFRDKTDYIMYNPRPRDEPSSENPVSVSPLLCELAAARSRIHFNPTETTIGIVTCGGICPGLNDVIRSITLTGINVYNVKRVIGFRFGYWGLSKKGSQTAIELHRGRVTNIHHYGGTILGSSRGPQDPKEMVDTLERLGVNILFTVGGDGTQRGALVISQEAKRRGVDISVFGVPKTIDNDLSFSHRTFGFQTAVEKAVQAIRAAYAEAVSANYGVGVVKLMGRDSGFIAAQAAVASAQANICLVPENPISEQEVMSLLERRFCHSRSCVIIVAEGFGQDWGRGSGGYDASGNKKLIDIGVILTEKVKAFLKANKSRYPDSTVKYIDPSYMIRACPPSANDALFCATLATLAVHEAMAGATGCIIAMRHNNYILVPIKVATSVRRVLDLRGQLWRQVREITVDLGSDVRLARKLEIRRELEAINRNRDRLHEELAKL
# Chain of UniProt Q8NER1 (Q8NER1 whole entry, looked up): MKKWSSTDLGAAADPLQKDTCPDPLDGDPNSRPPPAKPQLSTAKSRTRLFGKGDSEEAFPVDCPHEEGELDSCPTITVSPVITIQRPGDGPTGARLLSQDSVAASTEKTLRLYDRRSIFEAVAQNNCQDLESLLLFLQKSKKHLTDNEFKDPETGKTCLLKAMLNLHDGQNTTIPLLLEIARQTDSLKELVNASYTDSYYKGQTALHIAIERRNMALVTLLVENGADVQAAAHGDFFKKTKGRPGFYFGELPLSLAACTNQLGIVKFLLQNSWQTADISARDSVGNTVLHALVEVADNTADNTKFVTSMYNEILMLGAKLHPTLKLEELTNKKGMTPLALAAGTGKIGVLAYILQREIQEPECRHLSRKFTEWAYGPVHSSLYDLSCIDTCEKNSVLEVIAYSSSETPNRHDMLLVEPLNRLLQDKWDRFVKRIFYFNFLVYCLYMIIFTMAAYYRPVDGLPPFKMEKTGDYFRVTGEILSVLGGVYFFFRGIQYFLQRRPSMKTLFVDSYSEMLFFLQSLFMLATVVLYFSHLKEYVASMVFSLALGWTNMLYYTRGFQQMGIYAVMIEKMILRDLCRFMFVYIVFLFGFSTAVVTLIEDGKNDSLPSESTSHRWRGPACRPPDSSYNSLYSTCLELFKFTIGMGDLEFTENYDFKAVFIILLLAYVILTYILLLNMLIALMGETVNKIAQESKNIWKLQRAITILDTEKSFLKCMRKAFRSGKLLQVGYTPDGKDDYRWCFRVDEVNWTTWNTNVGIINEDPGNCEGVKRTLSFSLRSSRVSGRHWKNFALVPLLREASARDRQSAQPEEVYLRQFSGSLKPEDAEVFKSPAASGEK
# Chain of UniProt O89049 (O89049 whole entry, looked up): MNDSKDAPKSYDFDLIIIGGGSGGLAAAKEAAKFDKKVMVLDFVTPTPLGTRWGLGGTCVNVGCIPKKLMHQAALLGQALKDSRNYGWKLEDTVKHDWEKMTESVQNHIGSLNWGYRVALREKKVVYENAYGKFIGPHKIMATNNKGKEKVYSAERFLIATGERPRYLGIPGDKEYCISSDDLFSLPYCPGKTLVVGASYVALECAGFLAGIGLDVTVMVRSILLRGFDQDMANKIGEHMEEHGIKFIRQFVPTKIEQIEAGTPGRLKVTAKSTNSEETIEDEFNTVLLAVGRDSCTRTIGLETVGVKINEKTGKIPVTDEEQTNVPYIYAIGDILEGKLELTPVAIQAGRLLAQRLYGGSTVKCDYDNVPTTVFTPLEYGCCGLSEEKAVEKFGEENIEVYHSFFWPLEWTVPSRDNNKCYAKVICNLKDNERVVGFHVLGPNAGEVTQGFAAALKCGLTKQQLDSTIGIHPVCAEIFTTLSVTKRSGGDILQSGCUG
# Chain of UniProt P11712 (P11712 whole entry, looked up): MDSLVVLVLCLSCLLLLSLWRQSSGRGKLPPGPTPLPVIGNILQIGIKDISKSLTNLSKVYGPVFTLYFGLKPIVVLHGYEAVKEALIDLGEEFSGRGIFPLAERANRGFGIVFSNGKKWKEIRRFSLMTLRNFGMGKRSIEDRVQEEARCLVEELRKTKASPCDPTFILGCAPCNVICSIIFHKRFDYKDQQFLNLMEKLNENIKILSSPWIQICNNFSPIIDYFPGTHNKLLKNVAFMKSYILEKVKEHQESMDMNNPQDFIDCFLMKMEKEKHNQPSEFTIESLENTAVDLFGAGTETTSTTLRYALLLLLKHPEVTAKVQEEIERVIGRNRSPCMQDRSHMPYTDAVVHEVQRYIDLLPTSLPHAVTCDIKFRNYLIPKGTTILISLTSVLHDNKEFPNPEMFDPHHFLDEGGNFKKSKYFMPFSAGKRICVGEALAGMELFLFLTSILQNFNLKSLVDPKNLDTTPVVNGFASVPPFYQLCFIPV
# Chain of UniProt P08482 (P08482 whole entry, looked up): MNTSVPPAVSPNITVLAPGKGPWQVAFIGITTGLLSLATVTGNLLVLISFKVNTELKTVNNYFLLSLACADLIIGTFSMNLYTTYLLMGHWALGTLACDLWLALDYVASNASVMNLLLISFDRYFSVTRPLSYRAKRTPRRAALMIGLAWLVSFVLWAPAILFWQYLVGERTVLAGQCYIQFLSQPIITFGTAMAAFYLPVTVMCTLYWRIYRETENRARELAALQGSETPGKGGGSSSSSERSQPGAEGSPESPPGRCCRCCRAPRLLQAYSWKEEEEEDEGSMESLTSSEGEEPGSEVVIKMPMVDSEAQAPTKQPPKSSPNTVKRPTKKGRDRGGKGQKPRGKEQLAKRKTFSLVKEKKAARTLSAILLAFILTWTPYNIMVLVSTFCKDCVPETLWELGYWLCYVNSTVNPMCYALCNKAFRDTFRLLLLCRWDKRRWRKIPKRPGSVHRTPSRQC
# Chain of UniProt O94925 (O94925 whole entry, looked up, canonical isoform): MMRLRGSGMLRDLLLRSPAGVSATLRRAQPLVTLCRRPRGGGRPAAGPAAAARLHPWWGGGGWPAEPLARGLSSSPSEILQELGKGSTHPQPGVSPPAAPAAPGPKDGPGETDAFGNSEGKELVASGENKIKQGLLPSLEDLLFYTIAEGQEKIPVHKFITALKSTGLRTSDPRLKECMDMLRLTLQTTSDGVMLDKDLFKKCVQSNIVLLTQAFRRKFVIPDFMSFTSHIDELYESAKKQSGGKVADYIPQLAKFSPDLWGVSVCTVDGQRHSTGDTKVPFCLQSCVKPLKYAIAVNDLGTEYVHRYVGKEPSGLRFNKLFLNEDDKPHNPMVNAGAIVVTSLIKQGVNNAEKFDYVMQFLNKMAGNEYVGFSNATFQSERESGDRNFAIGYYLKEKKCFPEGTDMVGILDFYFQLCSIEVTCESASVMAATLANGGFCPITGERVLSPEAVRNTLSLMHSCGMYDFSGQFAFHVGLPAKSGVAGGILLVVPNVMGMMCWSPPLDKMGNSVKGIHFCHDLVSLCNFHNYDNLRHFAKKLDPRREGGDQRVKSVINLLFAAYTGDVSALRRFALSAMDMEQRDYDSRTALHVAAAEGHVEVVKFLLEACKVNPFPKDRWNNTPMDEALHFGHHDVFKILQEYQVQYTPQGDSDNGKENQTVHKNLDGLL
structure (smiles),measurement,setting,value
CC(=O)c1ccc(S(=O)(=O)NC(=O)NC2CCCCC2)cc1,Potency,[1],inactive
same,Potency,[2],"inconclusive: 14.1 µM [inhibitor, partial curve, poor fit]"
same,cytotoxicity (dead cells),[3],inconclusive: 34.7% [cytotoxic]
same,Potency,[4],inactive
same,Potency,[5],inactive
same,Potency,[6],inactive
CC(C)N(CCC(=O)c1ccc2ccccc2c1)Cc1ccccc1,Potency,[7],"inconclusive: 26.1 µM [falling, single point]"
same,Potency,[8],"inconclusive: 13.1 µM [falling, single point]"
same,Potency,[9],active: 7.52 µM
same,Potency,[10],"inconclusive: 12.6 µM [activator, single point]"
same,Potency,[11],"inconclusive: 37.9 µM [inhibitor, single point]"
same,Potency,[12],active: 7.08 µM
same,Potency,[13],"inconclusive: 3.98 µM [inhibitor, full curve, poor fit]"
same,Potency,[14],"inconclusive: 29.1 µM [inhibitor, single point]"
same,Potency,[15],"inconclusive: 31.6 µM [cytotoxic, single point]"
same,Potency,[16],"inconclusive: 11.2 µM [inhibitor, partial curve]"
CCc1cccc2c3c([nH]c12)[C@@](CC)(CC(=O)O)OCC3,Potency,[17],"inconclusive: 39.8 µM [falling, single point]"
same,Potency,[18],inactive
O=C(O)C[C@H](O)C[C@H](O)C=Cc1c(C2CC2)nc2ccccc2c1-c1ccc(F)cc1,Potency,[19],"inconclusive: 18.5 µM [cytotoxic, partial curve]"
same,Potency,[20],"inconclusive: 0.827 µM [cytotoxic, full curve]"

# Reference: PubChem BioAssay (NCATS)
